Source: PubChem BioAssay AID1963973 (Molecular Pharmacology Branch, DTP, NCI, 2024)
Not every entry of the source has a single result; some have several. This list holds those alone. The source may hold further records. Values that stand side by side are repeated measurements (runs, samples, wells, individuals or studies). One block for each compound: values may come before it.

Test system: 883617-216-R-J1-PDC tumor spheroids, viability
Assay: Anticancer human tumor 883617-216-R-J1-PDC patient-derived bladder carcinoma cell line growth inhibition [PI3K]
Settings: spheroids with HUVEC and MSC; for viability, T/C: stronger effect = lower value; for IC50: compound alone
Text: Combinatorial screen of targeted agents with the PI3K inhibitors inavolisib, alpelisib, duvelisib, and copanlisib in multi-cell type tumor spheroids
A high-throughput screen of multi-cell type tumor spheroids was designed to identify active combinations of targeted small molecules and PI3K pathway inhibitors. Complex spheroids include a stromal component modeled by human endothelial cells (HUVEC) and fibroblasts modeled by human mesenchymal stem cells (MSCs). The concentration ranges selected for each drug and investigational agent were based upon clinically achievable concentrations if the clinical Cmax of the agent was known.
Compounds. The drugs and investigational agents: inavolisib (NSC800729), alpelisib (NSC765974), duvelisib (NSC772469), copanlisib (NSC816437), ipatasertib (NSC767898), afuresertib (NSC778305), talazoparib (NSC767125), sapanisertib (NSC764658), selumetinib (NSC741078), tovorafenib (DAY101, NSC766906), vemurafenib (NSC761431), ravoxertinib (NSC781343), sotorasib (NSC818433), MRTX1133 (NSC 836407), abemaciclib (NSC 768073), palbociclib (NSC758247), venetoclax (NSC 766270), SY5609 (NSC837396), enzalutamide (NSC755605), and darolutamide (NSC825331), were obtained from the National Cancer Institute (NCI) Developmental Therapeutics Program Chemical Repository. The FDA-approved anticancer drug set is available from the NCI Developmental Therapeutics Program. […] The stock solutions were prepared in dimethyl sulfoxide (DMSO, Sigma-Aldrich, St. Louis, MO, cat. D2650) at 800-fold the tested concentration and stored at -70 degrees C prior to their use. All drugs and investigational agents were tested over a range starting from a high concentration at or near the clinical Cmax and decreasing in half-log increments. If the clinical Cmax for an agent had not been determined, the highest concentration tested was 10 microM.
Cell Culture. All cells were maintained in an incubator at 37 degrees C and 5% CO2 with 95% humidity. The PDC lines were cultured according to standard operating procedures established by the NCI PDMR (https://pdmr.cancer.gov/sops/default.htm). All PDCs were thawed and cultured in Matrigel-coated flasks prepared with a working solution of 1X Ham's F-12 nutrient mix, without supplementation (Invitrogen, Waltham, MA, cat. 11765054), 100 U/mL penicillin-streptomycin (Invitrogen, cat. 15140122), and 2.5% Matrigel (Corning Inc., Corning, NY, cat. 354248) for the first three passages. The 354836-022-R-J1-PDC, 475296-252-R-J1-PDC, and 997726-040-R-J2-PDC lines were cultured in 6A media, which includes advanced DMEM/F-12 (Thermo Fisher Scientific, cat. 12634028), 10 mM HEPES (Thermo Fisher Scientific, cat. 15630080), 1X GlutaMAX supplement (Thermo Fisher Scientific, cat. 35050061), 0.1 mg/mL primocin (InvivoGen, San Diego, CA, cat. ant-pm-2), 10% defined fetal bovine serum, heat inactivated (HyClone Laboratories Inc., Logan, UT, cat. SH30070.03HI), 50% L-WRN conditioned media (ATCC, cat. CRL-3276), 1.25 mM N-Acetyl-L-cysteine (Sigma-Aldrich, cat. A9165), 10 mM nicotinamide (Sigma-Aldrich, cat. N0636), 1X B-27 supplement (Thermo Fisher Scientific, cat. 17504044), 1X N-2 supplement (Thermo Fisher Scientific, cat. 17502048), and 10 microM Y-27632 dihydrochloride (Tocris Bioscience, Bristol, United Kingdom, cat. 1254). The 624824-186-R-J2-PDC line was cultured in 6C/Colon 1B media, which includes all 6A media components plus 50 ng/mL human EGF recombinant protein (Thermo Fisher Scientific, cat. PHG0311). […]
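Also: spheroids exposed to agents for 7 days before the viability read.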

SMILES: CC(Cn1ccc(-c2ccc(C#N)c(Cl)c2)n1)NC(=O)c1cc(C(C)O)[nH]n1 (configuration not stated)
viability, T/C (compound alone 0.0316 µM): 88.5, 103, 114, 105%

IC50 (run of 04/25/2023): > 10 µM, 5.19 µM, 7.96 µM, 8.19 µM
SMILES: CC(Nc1ncnc2nc[nH]c12)c1cc2cccc(Cl)c2c(=O)n1-c1ccccc1 (configuration not stated)

SMILES: CCCS(=O)(=O)Nc1ccc(F)c(C(=O)c2c[nH]c3ncc(-c4ccc(Cl)cc4)cc23)c1F
viability, T/C (compound alone 1 µM): 90.2, 87, 84.2, 111%

IC50: 31.6 nM and > 10 µM
SMILES: C=CC(=O)N1CCN(c2nc(=O)n(-c3c(C)ccnc3C(C)C)c3nc(-c4c(O)cccc4F)c(F)cc23)C(C)C1 (configuration not stated)

SMILES: C[C@@H](NC(=O)c1ncnc(N)c1Cl)c1ncc(C(=O)Nc2cc(C(F)(F)F)c(Cl)cn2)s1
viability, T/C (compound alone 0.0316 µM): 97.5, 80.8, 101, 112%

IC50: 223 nM, 270 nM, > 1 µM, 492 nM
SMILES: CCN1CCN(Cc2ccc(Nc3ncc(F)c(-c4cc(F)c5nc(C)n(C(C)C)c5c4)n3)nc2)CC1

SMILES: CC1(C)CCC(CN2CCN(c3ccc(C(=O)NS(=O)(=O)c4ccc(NCC5CCOCC5)c([N+](=O)[O-])c4)c(Oc4cnc5[nH]ccc5c4)c3)CC2)=C(c2ccc(Cl)cc2)C1
viability, T/C (compound alone 0.1 µM): 96, 69.6, 85.8, 83%
viability, T/C (compound alone 0.316 µM): 118, 102, 88.9, 88.4%
viability, T/C (compound alone 10 µM): 3.72, 3.92, 54, 91.1%

SMILES: Cn1ncc(Cl)c1-c1cc(C(=O)NC(CN)Cc2cccc(F)c2)sc1Cl (configuration not stated)
viability, T/C (compound alone 10 µM): 4.88, 85.5, 5.74, 6.65%

SMILES: CNC(=O)c1ccc(N2C(=S)N(c3ccc(C#N)c(C(F)(F)F)c3)C(=O)C2(C)C)cc1F
viability, T/C (compound alone 0.1 µM): 101, 70.9, 90, 99%
viability, T/C (compound alone 10 µM): 81.7, 67.3, 92.5, 75.3%
